# Data taken from PubChem BioAssay AID1745853 (National Center for Advancing Translational Sciences (NCATS), 2022).
# Some of the results follow. Further columns of the screen follow, without active or inactive calls.
# Legend:
# Assay in all cases: Primary Screen for Target Class Profiling of Small Molecule Inhibitors of Methyltransferases
# [1] = biological target: Glycine N-methyltransferase (Homo sapiens) (UniProt Q14749); conditions: purified enzyme, MTase-Glo SAH luminescence; measured here: GNMT inhibition; at 40 µM; stronger effect = lower value
# How it was run: (§1)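 Each enzyme was reacted with SAM and its substrate, with compounds tested once at 40 uM; SAH formed was read by MTase-Glo luminescence.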
# [2] = biological target: Guanidinoacetate N-methyltransferase (Homo sapiens) (UniProt Q14353); conditions: purified enzyme, MTase-Glo SAH luminescence; measured here: GAMT inhibition; at 40 µM; stronger effect = lower value
# How it was run: as §1
# [3] = biological target: Histamine N-methyltransferase (Homo sapiens) (UniProt P50135); conditions: purified enzyme, MTase-Glo SAH luminescence; measured here: HNMT inhibition; at 40 µM; stronger effect = lower value
# How it was run: as §1
# [4] = biological target: Nicotinamide N-methyltransferase (Homo sapiens) (UniProt P40261); conditions: purified enzyme, MTase-Glo SAH luminescence; measured here: NNMT inhibition; at 40 µM; stronger effect = lower value
# How it was run: as §1
# [5] = biological target: Phenylethanolamine N-methyltransferase (Homo sapiens) (UniProt P11086); conditions: purified enzyme, MTase-Glo SAH luminescence; measured here: PNMT inhibition; at 40 µM; stronger effect = lower value
# How it was run: as §1
# % is scaled to controls: 0 for no effect and ±100 for the full control effect.
Structure (SMILES),"activity change, negative = inhibition [1]","activity change, negative = inhibition [2]","activity change, negative = inhibition [3]","activity change, negative = inhibition [4]","activity change, negative = inhibition [5]"
C=C(CO)C12OC1C1(C)C(=CC2=O)C(O)C(O)CC1C (stereo not given),-0.384%,-6.44%,4.06%,-15%,-2.38%
COc1ccncc1C(=O)NC(=O)Nc1ccc(-c2ccccc2)c(C(F)(F)F)c1,0.232%,2.85%,6.81%,-23.3%,1.62%
O=c1[nH]c(=S)[nH]c(-c2ccccc2)c1Cc1c(O)ccc2ccccc12,-58.6%,3.65%,-6.65%,-12.3%,2.86%
CN1CCCCCCN(C(=O)NCc2ccccc2)CCC1=O,-1.27%,-1.22%,-0.547%,-3.25%,-0.858%
C=C(C(=O)O)[C@@H]1CC[C@@]2(C)CC[C@H](O)[C@@]2(C(C)=O)C1,-4.16%,-7.48%,5.26%,-17.2%,-0.953%
O=C(Cn1nc2n(Cc3ccc(F)cc3)c(=O)c3ccccc3n2c1=O)Nc1ccccc1F,-6.09%,-3.26%,-0.653%,-9.15%,-5.7%
c1nc(N2CCOCC2)c2c3c(sc2n1)CN(CC1CCCCC1)CC3,-5.5%,-8.76%,-5%,-48.9%,-10.8%
Cc1ccc(CCNC(=O)CNC(=O)C2(C)Cn3c(cc4ccccc43)C(=O)N2C)cc1 (stereo not given),-0.33%,3.97%,2.51%,5.55%,2.6%
Cc1ccc(Cn2c(=O)c3ccccc3n3c(CCC(=O)N4CCN(c5cccc(C)c5C)CC4)nnc23)cc1,3.65%,-3.38%,11.9%,-0.424%,-3.28%
CC1(C(=O)NC2CCCCCC2)Cn2c(ccc2-c2ccco2)C(=O)N1Cc1cccs1 (stereo not given),-5.54%,4.64%,-5.4%,-17%,-3.4%
COc1c2c(c(C)c3c1C(=O)OC3)OC1(C)CC(O)C(C(C)(C)O)C(C)(CCC(=O)O)C1C2 (stereo not given),-2.03%,4.79%,6.96%,-7.95%,2.57%
CC(C)CNC(=O)c1ccc2c(=O)n(Cc3ccccc3)c3nn(Cc4cccc(F)c4)c(=O)n3c2c1,-8.07%,-2.78%,-3.74%,-3.53%,-3.31%
COc1ccc(NC(=O)CSc2nnc3n(CCc4ccccc4)c(=O)c4ccccc4n23)cc1,5.55%,1.36%,10.1%,4.91%,8.11%
Cc1[nH]c2ccccc2c1CC(=O)N[C@@H](Cc1ccccc1)C(=O)N(C)c1ccccc1,-4.76%,-3.18%,4.11%,-26.9%,-6.23%
CC1CCC(NC(=O)Cn2ccc3cc(S(=O)(=O)N4CCCCC4)ccc32)CC1 (stereo not given),-0.589%,5.11%,-2.54%,-4.84%,-8.36%
CN1C(=O)c2cc(C(=O)Nc3ccccc3Cl)nn2CC1(C)C(=O)NC1CCCCCC1 (stereo not given),-1.57%,0.174%,0.307%,-4.57%,-1.06%

Structure (SMILES),"activity change, negative = inhibition [1]","activity change, negative = inhibition [2]","activity change, negative = inhibition [3]","activity change, negative = inhibition [4]","activity change, negative = inhibition [5]"
CC(C)(CN1CCC(Cc2ccc(C(=O)O)cc2)C1)N1CCOCC1 (stereo not given),-2.55%,-7%,-2.32%,-6.49%,-4.54%
COCC(=O)N1CCN(Cc2ccccc2-c2ccc(C)c(Cl)c2)CC1,-2.99%,1.02%,-2.73%,-7.39%,-2.66%
C[C@]12CC[C@@H]3c4ccc(O)cc4CC[C@H]3[C@@H]1CC[C@@H]2O,-34.7%,10.5%,5.61%,-13.9%,-2.23%
COc1cccc(CNC(=O)C2(N3C[C@@H](C)O[C@@H](C)C3)Cc3ccccc3C2)c1,-9.59%,-9.63%,-6.27%,-20.5%,-2.67%
Cc1ccc(C(=O)Cn2nc3n(C(C)C)c(=O)c4ccc(C(=O)NC(C)C)cc4n3c2=O)c(C)c1,3.71%,0.613%,9.02%,2%,6.31%
CCC/C=C1\OC(=O)C2=C1CCC(O)C2O (stereo not given),0%,0.198%,5.46%,-13.2%,4.44%
CCN(CCNC(=O)Nc1ccccc1Br)c1cccc(C)c1,1.52%,4.49%,-3.17%,-14.8%,-10.2%
COc1c(C)c2c(c(O)c1C/C=C(\C)CC/C=C(\C)CCC(=O)O)C(=O)OC2,0%,-3.78%,-1.57%,-21.5%,-3.03%
CC1c2cccn2CCN1C(=O)Nc1ccccc1F (stereo not given),-0.802%,0%,1.81%,-4.42%,-0.386%
CCC(C)NC(=O)c1ccc2c(=O)n(C(C)C)c3nn(Cc4cccc(C)c4)c(=O)n3c2c1 (stereo not given),-4.81%,0.999%,-4.11%,-3.32%,-2.16%
Cc1c(NC(=O)N2CCOCC2)ccc2c1c1ccccc1n2C(C)C,1.65%,-1.14%,10.8%,-23.1%,-2.49%
NC(=O)[C@@H](Cc1ccccc1)NC(=O)C1=C[C@@H](NC(=O)CS(=O)(=O)c2ccccc2)[C@@H](O)[C@H](O)C1,-8.46%,-4.92%,-4.83%,-8.34%,-8.27%
O=C(NCCc1ccccc1)c1nc2sccn2c1-c1cccnc1,-9.24%,-12.5%,-4.04%,-16.7%,-11%
COc1ccc(CN2C(=O)c3cc4ccc(OC)cc4n3CC2(C)C(=O)NC2CCCCC2)cc1 (stereo not given),3.68%,5.57%,7.56%,-1.92%,1.39%
CC(C)c1noc(-c2cn(C3CCCN(C(=O)c4ccc[nH]4)C3)nn2)n1 (stereo not given),-2.98%,0.62%,-1.08%,0.272%,8.81%
